Assay results: the antibiotic and cytotoxicity screens of Wong et al. (2023)
The list shows a part of the results.

Each compound was assayed on HSkMC (human skeletal muscle cells) (assay: cytotoxicity call (relative viability < 0.9)). Details: 10 µM.
In the case of `O=c1cc(-c2ccc(O)cc2)oc2cc(O)cc(O)c12`, the cytotoxicity call was “inactive”.
`OC[C@@H]1COCCN1Cc1ccccc1` was tested, and the cytotoxicity call was “inactive”.
For `Cc1cc(C(=O)Nc2cccc3c2O[C@H](CN(C)S(=O)(=O)c2cccs2)[C@H](C)CN([C@@H](C)CO)C3=O)n(C)n1`, the cytotoxicity call was “inactive”.
With `CN(C)c1nc(N)nc(CSc2nnnn2C)n1` the cytotoxicity call was “inactive”.
In the case of `NCC[C@H]1CC[C@H](NC(=O)C2CC2)[C@@H](CO)O1`, the cytotoxicity call was “inactive”.
With `COc1ccc(NC(=O)N(C)C[C@H]2Oc3c(NC(=O)c4cnccn4)cccc3C(=O)N([C@@H](C)CO)C[C@@H]2C)cc1` the cytotoxicity call was “inactive”.
For `COc1ccc(S(=O)(=O)Nc2ccc3c(c2)C(=O)N([C@@H](C)CO)C[C@@H](C)[C@@H](CN(C)C(=O)Nc2c(C)noc2C)OCCCC[C@H](C)O3)cc1`, the cytotoxicity call was “inactive”.
With `C[C@H]1CN([C@@H](C)CO)C(=O)CCCn2cc(nn2)CO[C@H]1CN(C)S(=O)(=O)c1ccc(Cl)cc1` the cytotoxicity call was “inactive”.
`COc1ccc(S(=O)(=O)Nc2ccc3c(c2)C(=O)N([C@@H](C)CO)C[C@@H](C)[C@@H](CN(C)C(=O)CCC(F)(F)F)OCCCC[C@H](C)O3)cc1` was tested, and the cytotoxicity call was “inactive”.
In the case of `O=C(N[C@H]1CC[C@H](CC(=O)N2CCOCC2)O[C@@H]1CO)c1ccccn1`, the cytotoxicity call was “inactive”.
In the case of `Cc1noc(C)c1NC(=O)N(C)C[C@@H]1Oc2ncc(C#CCN(C)C)cc2C(=O)N([C@@H](C)CO)C[C@@H]1C`, the cytotoxicity call was “inactive”.
With `CC(C)NC(=O)Nc1ccc2c(c1)C(=O)N([C@H](C)CO[Si](C)(C)C(C)(C)C)C[C@@H](C)[C@H](CN(C)S(=O)(=O)c1ccc(Cl)cc1)O2` the cytotoxicity call was “inactive”.
